Source: the supplement of paper PMC12217912
Some of the results follow. The full chains were built here from the parent and the listed change. Values near 0.05 are background.

B1: TEV protease; numbered along this chain (parent)
chain: MGESLFKGPRDYNPISSSICHLTNESDGHTTSLYGIGFGPFIITNKHLFRRNNGTLVVQSLHGVFKVKDTTTLQQHLVDGRDMIIIRMPKDFPPFPQKLKFREPQREERICLVTTNFQTKSMSSMVSDTSCTFPSGDGIFWKHWIQTKDGQCGSPLVSTRDGFIVGIHSASNFTNTNNYFTSVPKNFMELLTNQEAQQWVSGWRLNADSVLWGGHKVFMVKPEEPFQPVKEATQL

Variants of: B1
Test: raw area under fraction-flipped curve 0-4 h after induction (AUC4h, not background-subtracted), DNA-recorder readout of cleavage of the substrate (dimensionless); higher = more cleavage of the substrate by the protease variant
Settings: temperature: 34 °C; time window: 0-4 h after rhamnose induction
Protocol: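 In vivo DNA recorder in E. coli TOP10(DE3) ΔrhaA at 34 °C. Each TEVp single-site mutant (parent TEVp 0) is paired with a single-site variant of the 7-mer TEVs (canonical ENLYFQ|S). The substrate sits between flexible linkers in a Bxb1-sfGFP-TEVs-SsrA fusion, so cleavage stabilises Bxb1 and speeds flipping of a recombination array, read by NGS. The value is the raw area under the fraction-flipped curve over 0-4 h after rhamnose induction (AUC4h), with ≥20 reads per time point. It is not background-subtracted; inactive controls average about 0.047.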
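Further: Bxb1 expression induced with 0.2% (w/v) L-rhamnose at OD600 near 0.5, cultures sampled hourly, flipped fraction per protease–substrate barcode pair counted by paired-end Illumina sequencing.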

Variant | area with substrate ENAYFQS | area with substrate ENDYFQS | area with substrate ENEYFQS | area with substrate ENFYFQS | area with substrate ENIYFQS | area with substrate ENNYFQS | area with substrate ENWYFQS | area with substrate ENCYFQS | area with substrate ENGYFQS | area with substrate ENHYFQS | area with substrate ENKYFQS | area with substrate ENMYFQS | area with substrate ENQYFQS | area with substrate ENRYFQS | area with substrate ENSYFQS | area with substrate ENTYFQS | area with substrate ENVYFQS | area with substrate ENYYFQS | area with substrate ENPYFQS
MGESLFKGPRDYNPISSSICHLTNESDGHTTSLYGIGFGPFIITNKHLFRRNNGTLVVQSLHGVFKVKDTTTLQQHLVDGRDMIIIRMPKDFPPFPQKLKFREPQREERICLVTTNFQTKSMSSMVSDTSCTFPSGDGIFWKHWIQTKDGQCGSPLVSTRDGFIVGIHSASNFTNTNNYFTSVPKNFMELLTNQEAQQWVSKWRLNADSVLWGGHKVFMVKPEEPFQPVKEATQL [G202K] | 0.068 | 0.0751 | 0.0646 | 0.0391 | 0.0684 | 0.0704 | 0.0699 | – | – | – | – | – | – | – | – | – | – | – | –
MGESLFKGPRDYNPISSSICHLTNESDGHTTSLYGIGFGPFIITNKHLFRRNNGTLVVQSLHGVFKVKDTTTLQQHLVDGRDMIIIRMPKDFPPFPQKLKFREPQREERICLVTTNFQTKSMSSMVSDTSCTFPSGDGIFWKHWIQTKDGQCGSPLVSTRDGFIVGIHSASNFTNTNNYFTSVPKNFMELLTNQEAQQWVSFWRLNADSVLWGGHKVFMVKPEEPFQPVKEATQL [G202F] | 0.0601 | 0.0575 | 0.0534 | 0.0651 | 0.0565 | 0.0467 | – | 0.0636 | 0.0615 | 0.0712 | 0.0633 | 0.0573 | 0.055 | 0.0593 | 0.0888 | 0.0514 | 0.0526 | 0.103 | –
MGESLFKGPRDYNPISSSICHLTNESDGHTTSLYGIGFGPFIITNKHLFRRNNGTLVVQSLHGVFKVKDTTTLQQHLVDGRDMIIIRMPKDFPPFPQKLKFREPQREERICLVTTNFQTKSMSSMVSDTSCTFPSGDGIFWKHWIQTKDGQCGSPLVSTRDGFIVGIHSASNFTNTNNYFTSVPKNFMELLTNQEAQQWVSGWRVNADSVLWGGHKVFMVKPEEPFQPVKEATQL [L205V] | 0.0643 | 0.0591 | 0.0795 | 0.0718 | 0.0909 | 0.0573 | 0.0535 | – | – | – | – | – | – | – | 0.0476 | – | 0.0688 | – | –
MGESLFKGPRDYNPISSSICHLTNESDGHTTSLYGIGFGPFIITNKHLFRRNNGTLVVQSLHGVFKVKDTTTLQQHLVDGRDMIIIRMPKDFPPFPQKLKFREPQREERICLVTTNFQTKSMSSMVSDTSCTFPSGDGIFWKHWIQTKDGQCGSPLVSTRDGFIVGIHSASNFTNTNNYFTSVPKNFMELLTNQEAQFWVSGWRLNADSVLWGGHKVFMVKPEEPFQPVKEATQL [Q198F] | 0.0634 | – | 0.0596 | 0.0596 | – | 0.0684 | – | 0.0615 | 0.0709 | 0.0627 | 0.0588 | 0.0728 | 0.0616 | 0.0531 | 0.0537 | 0.0615 | 0.0614 | 0.0549 | 0.045
MGESLFKGPRDYNPISSSICHLTNESDGHTTSLYGIGFGPFIITNKHLFRRNNGTLVVQSLHGVFKVKDTTTLQQHLVDGRDMIIIRMPKDFPPFPQKLKFREPQREERICLVTTNFQTKSMSSMVSDTSCTFPSGDGIFWKHWIQTKDGQCGSPLVSTRDGFIVGIHSASNFTNTNNYFTSVPKNFMELLTNGEAQQWVSGWRLNADSVLWGGHKVFMVKPEEPFQPVKEATQL [Q194G] | 0.0622 | 0.0584 | 0.0515 | – | 0.12 | 0.0517 | 0.0343 | 0.0381 | 0.0587 | 0.0609 | – | 0.0773 | 0.0601 | 0.0523 | 0.0553 | 0.0579 | 0.0754 | 0.0725 | 0.0359
MGESLFKGPRDYNPISSSICHLTNESDGHTTSLYGIGFGPFIITNKHLFRRNNGTLVVQSLHGVFKVKDTTTLQQHLVDGRDMIIIRMPKDFPPFPQKLKFREPQREERICLVTTNFQTKSMSSMVSDTSCTFPSGDGIFWKHWIQTKDGQCGSPLVSTRDGFIVGIHSASNFTNTNNYFTSVPKNFMELLTNQEAQQWVSGWRLNACSVLWGGHKVFMVKPEEPFQPVKEATQL [D208C] | 0.0587 | 0.045 | 0.0636 | 0.0848 | 0.0623 | 0.0569 | – | 0.0528 | – | – | 0.0627 | – | 0.0655 | 0.056 | 0.0611 | 0.0568 | 0.0622 | – | 0.0657
MGESLFKGPRDYNPISSSICHLTNESDGHTTSLYGIGFGPFIITNKHLFRRNNGTLVVQSLHGVFKVKDTTTLQQHLVDGRDMIIIRMPKDFPPFPQKLKFREPQREERICLVTTNFQTKSMSSMVSDTSCTFPSGDGIFWKHWIQTKDGQCGSPLVSTRDGFIVGIHSASNFTNTNNYFTSVPKNFMELLTNQEAQQWVSGWRLNAFSVLWGGHKVFMVKPEEPFQPVKEATQL [D208F] | 0.038 | 0.0595 | 0.0667 | 0.0691 | 0.0679 | – | – | 0.0607 | 0.065 | – | 0.0605 | 0.0656 | 0.0661 | 0.041 | 0.0613 | 0.0708 | 0.0544 | 0.0466 | 0.0819
MGESLFKGPRDYNPISSSICHLTNESDGHTTSLYGIGFGPFIITNKHLFRRNNGTLVVQSLHGVFKVKDTTTLQQHLVDGRDMIIIRMPKDFPPFPQKLKFREPQREERICLVTTNFQTKSMSSMVSDTSCTFPSGDGIFWKHWIQTKDGQCGSPLVSTRDGFIVGIHSASNFTNTNNYFTSVPKNFMELLTSQEAQQWVSGWRLNADSVLWGGHKVFMVKPEEPFQPVKEATQL [N193S] | 0.052 | – | 0.0599 | – | – | 0.0548 | – | – | – | – | – | – | – | – | – | – | – | – | –
MGESLFKGPRDYNPISSSICHLTNESDGHTTSLYGIGFGPFIITNKHLFRRNNGTLVVQSLHGVFKVKDTTTLQQHLVDGRDMIIIRMPKDFPPFPQKLKFREPQREERICLVTTNFQTKSMSSMVSDTSCTFPSGDGIFWKHWIQTKDGQCGSPLVSTRDGFIVGIHSASNFTNTNNYFTSVPKNFMELLTNQEAQQGVSGWRLNADSVLWGGHKVFMVKPEEPFQPVKEATQL [W199G] | 0.0574 | 0.0765 | 0.0627 | – | – | 0.0627 | – | 0.0548 | 0.0516 | 0.0594 | 0.0492 | 0.0484 | 0.0665 | – | 0.0584 | 0.0593 | 0.0493 | – | –
MGESLFKGPRDYNPISSSICHLTNESDGHTTSLYGIGFGPFIITNKHLFRRNNGTLVVQSLHGVFKVKDTTTLQQHLVDGRDMIIIRMPKDFPPFPQKLKFREPQREERICLVTTNFQTKSMSSMVSDTSCTFPSGDGIFWKHWIQTKDGQCGSPLVSTRDGFIVGIHSASNFTNTNNYFTSVPKNFMELLTNQEAYQWVSGWRLNADSVLWGGHKVFMVKPEEPFQPVKEATQL [Q197Y] | 0.0647 | 0.0614 | – | – | – | – | – | 0.0621 | 0.0592 | – | – | – | 0.0562 | – | 0.0087 | 0.0659 | – | – | –
